This data set relates to ATP. Briefly: switch fluorescence ratio, 500 uM ATP over buffer (Cy3 cluster intensity, sum of 5 cycles each) (fold (ratio)); higher = stronger signal-on switching upon ATP binding; sequences stand for … in TCGTCGGCAGCGTCAGATGTGTATAAGAGACAGTTTTTTTTTTTTTTTTTTTTTTTTT…TC. The note with it: aptamer strand: ATP DNA aptamer (quencher-CACCTGGGGGAGTATTGCGGAGGAAGG + anchor), 100 nM annealed; ATP concentration: 500 uM; one replicate. A digest of the protocol: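 Imaging in selection buffer was followed by imaging after 15 min with 500 uM ATP at 22 °C, for Cy3-labelled switching-strand clusters annealed to 100 nM quencher-labelled ATP aptamer on a modified Illumina MiSeq flow-cell. Five of these buffer/ATP cycles ran, separated by NaOH stripping and re-annealing. The fluorescence ratio per cluster is summed target-cycle over summed buffer-cycle Cy3 intensity, averaged per switch-domain sequence; clusters outside 100-1000 RFU were removed.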

Values marked as one replicate rest on one cluster of the flow cell; about a third of the high ones do not repeat.
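Further: ATP exposure 15 min at 22 °C before imaging.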

For the sequence CCTATTCAGT, the switch fluorescence ratio amounted to 1.03. In the case of TAATCCGGGT it was 1.08; in that of CGAGTCCTCC, 1.06. In the case of ACACATGGT it was 1.04; in that of GGGCATGCTG, 0.96. Then AGAGCACCGG, with 1; and AAGTAGAAAG, with 0.977. Regarding AACATCAGCA, the switch fluorescence ratio was determined as 0.995.

Turning to TGCAGCCGCG, the switch fluorescence ratio was found to be 1.03. For ACTGCGTTAT, the switch fluorescence ratio amounted to 1.07.

Turning to CTTTGTATGA, the switch fluorescence ratio turned out to be 0.945. With TCACGTTGC, the switch fluorescence ratio is 1.02.

Take AGAAAATAGC: the switch fluorescence ratio amounted to 1. In the case of CGGGGAGATT it was 0.973.

Consider GCTTGGTAT, for which the switch fluorescence ratio stood at 0.968. In the case of AGGTTGGGAT it was 0.999; in that of AAGCGAAGCT, 0.973; in that of AGGTATATTG, 1.06.

TAAGGCGACA: the switch fluorescence ratio is 0.977. In the case of GTGAATATTA it was 0.986. Then TCCATTACGG, with 1.04; and GAAAGTGGTT, with 0.97. Then CGACAGGACG, with 1.16; and CTGTGCCGTT, with 1.03; and TAGACAAAAG, with 1.04. On to TCCCTCATG, for which the switch fluorescence ratio was determined as 1.04. On to ATAGTCGGTA, for which the switch fluorescence ratio stood at 1.

Consider TGGGATTTAA, for which the switch fluorescence ratio was determined as 0.977. In the case of TGGGCCGCTG it was 0.989. In the case of ACGGGAACGC it was 1.05; in that of CCGGGGGGCA, 1.05; in that of GTAATTTCAA, 1.04.

In the case of GAGTTAAGC, the switch fluorescence ratio was 1.02. For the sequence GCTCGGTTCT, the switch fluorescence ratio came to 0.982.

On to TACGTCGTGG, for which the switch fluorescence ratio was found to be 1.04.

Consider CTTAACCACG, for which the switch fluorescence ratio amounted to 1.08. With TGAAAATT, the switch fluorescence ratio came out at 0.982. As for CCGTGCAAAT, the switch fluorescence ratio was found to be 5.22. Then ATATCAGGTC, with 1.06; and TTCGACCCGA, with 1.03; and TCTGGGAGCA, with 1.13. For CAGGTAAGAT, the switch fluorescence ratio stood at 1.

CTGTAGACCA: the switch fluorescence ratio was 0.994.

Take CTATAAGAGG: the switch fluorescence ratio was 1.04. Then CACTACATTG, with 1.04. In the case of AACTCGGCTG it was 0.969; in that of TGGACAGTGC, 1; in that of GAGGGATGGA, 0.996.

On to TAAATTGGAG, for which the switch fluorescence ratio is 1.07. In the case of CATCTCTGAT, the switch fluorescence ratio amounted to 0.985.

In the case of GTGGGTTCCG, the switch fluorescence ratio stood at 0.973. In the case of GACGGGCAA, the switch fluorescence ratio amounted to 1.71. In the case of CTTTAAAGGG it was 0.977. Then TCTGAACGAT, with 1.05; and TCCTGTTT, with 1.1; and GTGCGGGAAC, with 1.07.

Turning to ACTAGTGTTC, the switch fluorescence ratio was 1.02. In the case of GGAGCTATTT it was 1.12; in that of ACTAGCGGGG, 0.957.

For the sequence TTGGCATGAA, the switch fluorescence ratio amounted to 1.01. In the case of GCGGGGCATG it was 0.944; in that of TCCCACGGG, 1.11. Then AAAAGGCCGA, with 1.02. Take AGTGAGGGTT: the switch fluorescence ratio was 1.03.

For GATCGGAGGT, the switch fluorescence ratio stood at 1.01. Then ATCCCGCCAA, with 3.35. In the case of GGCGCGGGCC, the switch fluorescence ratio is 1.

Values taken from the supplement of paper PMC10126150.
